Assay results taken from patent US20240174760A1 (ZHEJIANG NANOMAB TECHNOLOGY CENTER, published 2024).

T1: mouse BCMA his tag (Acrobiosystems, BCA-M52H3) (mouse, UniProt O88472 1-49)
T1 construct: Bought protein; also called murine BCMA; not shown: his tag
T1 chain (looked up): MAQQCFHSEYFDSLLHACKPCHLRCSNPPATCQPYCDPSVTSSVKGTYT

T2: biotin-TACI (Acrobiosystems, TAI-H82F6) (human, UniProt O14836 2-166, limits assumed, biotin)
T2 construct: Bought protein; also called human TACI
T2 sequence (looked up): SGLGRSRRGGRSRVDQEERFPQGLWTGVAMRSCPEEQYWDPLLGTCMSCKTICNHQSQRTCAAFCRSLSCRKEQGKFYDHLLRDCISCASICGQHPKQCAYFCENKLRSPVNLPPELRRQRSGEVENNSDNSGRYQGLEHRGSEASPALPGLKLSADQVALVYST

T3: biotin-BAFFR (Acrobiosystems, BAR-H5257) (human, UniProt Q96RJ3 7-71, limits assumed, biotin)
T3 construct: Bought protein; also called human BAFFR
T3 sequence (looked up): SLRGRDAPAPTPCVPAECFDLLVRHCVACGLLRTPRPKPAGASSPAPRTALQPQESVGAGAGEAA

T4: human BCMA his tag protein (Acrobiosystems, BCA-H522y) (human, UniProt Q02223 1-54)
T4 construct: Bought protein; also called BCMA/TNFR-His; human recombinant BCMA his tag; not shown: his tag
T4 sequence (looked up): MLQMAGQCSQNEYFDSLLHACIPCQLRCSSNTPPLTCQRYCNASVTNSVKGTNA


Legend:
[1] = target: T1, mouse BCMA his tag (Acrobiosystems, …); assay: ELISA on coated mouse BCMA his tag (++ = OD450 > 1)
[2] = target: T2, biotin-TACI (Acrobiosystems, TAI-H82F6); assay: ELISA, antibody coated, biotin-TACI in solution
[3] = target: T3, biotin-BAFFR (Acrobiosystems, BAR-H5257); assay: ELISA, antibody coated, biotin-BAFFR in solution
[4] = target: T5, cynomolgus BCMA his tag (Acrobiosystems, BCA-C52H7) (cynomolgus, UniProt A0A2K5UD97 1-53); assay: ELISA on coated cynomolgus BCMA his tag
T5 construct: Bought protein; also called Cyno BCMA his tag; not shown: his tag
T5 sequence (A0A2K5UD97 entry or part of it): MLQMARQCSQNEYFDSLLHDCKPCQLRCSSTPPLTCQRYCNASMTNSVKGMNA

[5] = target: T4, human BCMA his tag protein …; assay: SPR Biacore T200, antibody captured on protein A, BCMA His analyte, 1:1 fit
[6] = target: T1, mouse BCMA his tag (Acrobiosystems, …); assay: ELISA on coated mouse BCMA his tag (+ = OD450 <= 1.0)

OD450 [1] [od] | binding result [2] | binding result [3] | binding result [4] | Kd [5] [nM] | koff [5] [s⁻¹] | kon [5] [M⁻¹ s⁻¹] | OD450 [6] [od] | Binder
> 1 | no binding (tested: 4 µg/mL) | no binding (tested: 4 µg/mL) | no binding (tested: 2 µg/mL) |  |  |  |  | NB-367 (Fc fusion, also called NB-367 antibody; VHH-hIgG4) heavy: QVQLVESGGGLVQPGGSLRLSCAASGFTFSPSAMSWARRAPGKGLEWVSSIYGEGSTVYADSMKDRFTISRDNAKNTVYLQMNSLKPEDTAVYYCGVGRWYEGRQYEHDYWGQGTLVTVSS[human IgG1 Fc with changes not written out]
> 1 | no binding (tested: 4 µg/mL) | no binding (tested: 4 µg/mL) | no binding (tested: 2 µg/mL) |  |  |  |  | NB-257 (Fc fusion, also called VHH-hIgG4) heavy: EVQLVESGGGLVQPGGSLRLSCAASGFTFSPSAMSWARQAPGKGFEWVSSIYSDGRAYYADTMKGRFTISRDNAKNTVYLQMNSLRPEDTALYYCGIGRWYEKREKEKGFWGQGTQVTVSS[human IgG1 Fc with changes not written out]
> 1 | no binding (tested: 4 µg/mL) | no binding (tested: 4 µg/mL) | no binding (tested: 2 µg/mL) |  |  |  |  | NB-102 (Fc fusion, also called VHH-hIgG4) heavy: QVQLVESGGDLVQPGGSLRLSCAASGFTFSPSAMSWARQAPGKGFEWVSTIYPDGRTYYSDSMKGRFTISRDNAKNTVYLQMHSLKPEDTALYYCGIGRWYENREKEKDLWGQGTQVTVSS[human IgG1 Fc with changes not written out]
> 1 | no binding (tested: 4 µg/mL) | no binding (tested: 4 µg/mL) | no binding (tested: 2 µg/mL) |  |  |  |  | NB-352 (Fc fusion, also called NB-352 antibody; VHH-hIgG4) heavy: QVQLVESGGGLVQPGGSLRLSCAASGFTFSPSAMSWARQAPGKGLEWVASIYGDGRPYYADSMKGRFTISRDNAKNTVYLQMNSLKPEDTALYYCAVGLWYEKREKEKDLWGQGTQVTVSS[human IgG1 Fc with changes not written out]
> 1 | no binding (tested: 4 µg/mL) | no binding (tested: 4 µg/mL) | no binding (tested: 2 µg/mL) |  |  |  |  | NB-90 (Fc fusion, also called NB-90 antibody; VHH-hIgG4) heavy: QVQLVESGGGLVQPGESLRLSCAASGFTFSPSAMSWARQAPGKGLEWVSSIYGDGNAYYSDSMKGRFTISRDNAKNTVYLQMNSLKPEDTALYYCAIGRWYEGRKKEEGLWGQGTQVTVAS[human IgG1 Fc with changes not written out]
> 1 | no binding (tested: 4 µg/mL) | no binding (tested: 4 µg/mL) | no binding (tested: 2 µg/mL) |  |  |  |  | NB-100 (Fc fusion, also called NB-100 antibody; VHH-hIgG4) heavy: QVQLVESGGGLVQPGGSLRLSCAASGFTFSSSAMSWARQAPGKGLEWVSSIYPDGTAYYADSMKGRFAISRDNARNTVYLQMNSLKPEDTALYQCAVGRWYEQRKKEPGLWGQGTQVTISS[human IgG1 Fc with changes not written out]

Second part, the binder before the results:

Binder | OD450 [1] [od] | binding result [2] | binding result [3] | binding result [4] | Kd [5] [nM] | koff [5] [s⁻¹] | kon [5] [M⁻¹ s⁻¹] | OD450 [6] [od]
NB-65 (Fc fusion, also called NB-65 antibody; VHH-hIgG4) heavy: QVQLVESGGGLVQPGGSLRLSCAASGFTFSSSAMSWARQAPGKELEWVSAIYSDGSTYYADSVKGRFTISRDNAKNTIYLQMNSLKPEDTANYICAIGDVRGRWDSRPRHEWTYWGQGTQVTVSS[human IgG1 Fc with changes not written out] | > 1 | no binding (tested: 4 µg/mL) | no binding (tested: 4 µg/mL) | no binding (tested: 2 µg/mL) |  |  |  | 
NB-53 (Fc fusion, also called NB-53 antibody; VHH-hIgG4) heavy: QVQLVESGGGLVQPGGSLRLSCAASGFTFSPSAMSWARQAPGKGLEWVSSIYPDGSTLYADSMKGRFTISRDNAKNTVSLQMNSLKPEDTAVYYCAIGLAPGYRDPNLRGQGTQVTVSS[human IgG1 Fc with changes not written out] | > 1 | no binding (tested: 4 µg/mL) | no binding (tested: 4 µg/mL) | no binding (tested: 2 µg/mL) |  |  |  | 
NB-36 (Fc fusion, also called NB-36 antibody; VHH-hIgG4) heavy: QVQLVESGGGLVQPGGSLRLSCAASGFTFSSSAMSWARRPPGKGLEWVSDIYPDGSTTYADSMKGRFTISRDNAKNTVYLEIYSLKPEDTAVYYCVIGRRGYAMGDRRLRGQGTQVTVSS[human IgG1 Fc with changes not written out] | > 1 | no binding (tested: 4 µg/mL) | no binding (tested: 4 µg/mL) | no binding (tested: 2 µg/mL) |  |  |  | 
NB-71 (Fc fusion, also called NB-71 antibody; VHH-hIgG4) heavy: EVQLVESGGGLVQPGGSLRLSCAASGFTFSSSAMSWARQAPGKGLEWVSDIYPDGTPTYADSMEGRFTISRDNAKNTVHLQIDSLKPEDTAVYYCVVGRRGYAMGDRALRGQGTQVTVSS[human IgG1 Fc with changes not written out] | > 1 | no binding (tested: 4 µg/mL) | no binding (tested: 4 µg/mL) | no binding (tested: 2 µg/mL) |  |  |  | 
NB-79 (Fc fusion, also called NB-79 antibody; VHH-hIgG4) heavy: EVQLVESGGGSVQPGGSLRLSCAASGFTFSPSAMSWARQAPGKGFEWVSSIYGDGRAYYADSMKGRFTISRDNAKHTVYLQMNSLKPEDTALYYCGIGRWYDQREKEKDLWGQGTQVTVSS[human IgG1 Fc with changes not written out] | > 1 | no binding (tested: 4 µg/mL) | no binding (tested: 4 µg/mL) | no binding (tested: 2 µg/mL) | 0.29 | 0.00164 | 5.67e+06 | 
NB-1 (Fc fusion, also called NB-1 antibody; VHH-hIgG4) heavy: EVQLVESGGGLVQPGGSLRLSCAASGFTFRSSAMSWARQAPGKGLEWVSDIYPDGRTDYADSIKGRFTMSRDNAKNTVYLLMDSLKPEDTAVYHCQVGRYVSGVYYQPRGQGTQVTVSS[human IgG1 Fc with changes not written out] |  | no binding (tested: 4 µg/mL) | no binding (tested: 4 µg/mL) | no binding (tested: 2 µg/mL) |  |  |  | ≤ 1
NB-51 (Fc fusion, also called NB-51 antibody; VHH-hIgG4) heavy: QVQLVESGGGLAQPGGSLRLSCAASGFTFSSSAMSWARQAPGKGLEWVSDIYPDGSAYYADSMKGRFTISRDNAKNTVYLQMDSLKPEDTAVYHCQVGRYVSGVDYQPRGQGTQVTVSS[human IgG1 Fc with changes not written out] | > 1 | no binding (tested: 4 µg/mL) | no binding (tested: 4 µg/mL) | no binding (tested: 2 µg/mL) |  |  |  | 
NB-27 (Fc fusion, also called NB-27 antibody; VHH-hIgG4) heavy: EVQLVESGGGLVQPGGSLRLSCAASGSISSIYAMGWYRQAPGKLRGLVAAITSGGNTFYADSVKGRFTISRDNAKNTVYLQMNSLKPEDTAVYDCNAAPWGSYSPGPGDIASWGQGTQVTVSS[human IgG1 Fc with changes not written out] |  | no binding (tested: 4 µg/mL) | no binding (tested: 4 µg/mL) | no binding (tested: 2 µg/mL) |  |  |  | ≤ 1
NB-29 (Fc fusion, also called NB-29 antibody; VHH-hIgG4) heavy: EVQLVESGGGLVQPGESLRLSCAASGFTFSSSAMSWARQAPGKGLEWVSGIYSDGSTYYADSVKGRFTISRDNAKNTVYLQMNSLKPEDTAVYLCAVGAPLVYAAYRPWGQGTQVTVSS[human IgG1 Fc with changes not written out] |  | no binding (tested: 4 µg/mL) | no binding (tested: 4 µg/mL) | no binding (tested: 2 µg/mL) |  |  |  | ≤ 1
NB-84 (Fc fusion, also called NB-84 antibody; VHH-hIgG4) heavy: QVQLVESGGGLVQPGGSLRLSCAASGFTFSSSAMSWARQAPGKGLEWVSSIYPDGTAYYADSMKGRFAISRDNARNTVYLQMNSLKPEDTALYQCAIGRWYDQRKKEPGLWGQGTQVTISS[human IgG1 Fc with changes not written out] | > 1 | no binding (tested: 4 µg/mL) | no binding (tested: 4 µg/mL) | no binding (tested: 2 µg/mL) |  |  |  | 
